# According to PubChem BioAssay AID1508623 (National Center for Advancing Translational Sciences (NCATS), 2021):
# About 450 (0.94%) of roughly 48,000 compounds were called active. Not shown: some 19% with an inconclusive outcome. Calls come from the whole dose curve; as a rule, active = well fitted inhibition curve with a large enough effect; inconclusive = small, poorly fitted or top-dose-only effect; inactive = no such curve, though single readings can be large or run the other way. This is one part of the list.
# Experiment: Primary qHTS for Identification of Small Molecule Inhibitors of Huntingtin Promoter Activity; note: nearly all actives have a fitted effect of over 50% in size
# Conditions: HEK293 HTT promoter firefly luciferase reporter (activity 0% = vehicle and -100% = no light), 24 h; series mostly up to 57.5 µM; activity change, negative = inhibition: at the top concentration
# Summary of the method: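 Firefly luciferase signal from promoter-reporter HEK293 cells was scaled between vehicle (0%) and zero RLU (-100%). Compounds were tested at final concentrations of up to 57.5 uM over 24 h at 37 degrees C. PTC124 at 50 uM final served as control inhibitor.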
# Potency is the fitted concentration of half-maximal effect.
Structure (SMILES),"activity change, negative = inhibition",Potency
Cn1ncc2nc(SCC(=O)Nc3ccc(Br)cc3F)n(Cc3ccccc3)c(=O)c21,inactive: -21.2%,–
CCOc1ccc(CCNC(=O)CN2N=C(c3ccccc3)CCC2=O)cc1OCC,inactive: -24.2%,–
c1cc(-c2sc(-c3ccncc3)c(-c3ccncc3)c2-c2ccncc2)ccn1,inactive: 5.22%,–
CC(=O)c1ccc(NC(=O)CSc2nc(-c3cccc(F)c3)nc3c2c(=O)n(C)c(=O)n3C)cc1,inactive: -12.7%,–
CN1C(C(=O)Nc2ccc(F)cc2F)=CC(c2ccc3c(c2)OCO3)=NS1(=O)=O,inactive: -11.7%,–
Cc1cc(C)cc(NC(=O)CN2C(=O)c3ccccc3Sc3ncccc32)c1,inactive: -24.3%,–
CCCCN(CC)CCCNC(=O)c1cc2c(=O)[nH]c3ccccc3c2s1,inactive: -12.7%,–
Cc1cc(NC(=O)C2=C(O)c3ccccc3S(=O)(=O)N2C)no1,inactive: 5.99%,–
COc1ccc(CNC(=O)c2ccc3c(c2)nc2n3CCOC2)c(OC)c1,inactive: 6.6%,–
Cc1ccc(-c2cc(C(F)(F)F)c(C#N)c(SCC(=O)Nc3ccccc3)n2)cc1,inactive: -12.5%,–
CCOC(=O)C(C)NC(=O)c1c(C)oc2ncn(CC(C)C)c(=O)c12 (centres undefined),inactive: 0%,–
Cc1ccc(CNC(=O)c2cc3c(=O)n(Cc4cccnc4)ccc3nc2C)cc1,inactive: -24.5%,–
COc1ccc(OC)c(CCNC(=O)c2csc3c2CCCCC3)c1,inactive: -19.9%,–
Cc1cccc(C)c1OCc1nc2c3c(-c4ccccc4)c(-c4ccccc4)oc3ncn2n1,inactive: -6.81%,–
CCn1cc(C(=O)N2CCN(c3ccc(C(C)=O)cc3)CC2)c2cc(OC)c(OC)cc2c1=O,inactive: -5.61%,–
Cc1csc2nc(COc3ccccc3NC(=O)c3ccc(C(C)(C)C)cc3)cc(=O)n12,inactive: 4.2%,–
CC(=O)C1=C(c2ccc(C)c(C)c2)N(C(C)=O)n2c(nnc2-c2ccc(Cl)cc2)S1,inactive: -13.6%,–
CCNC(=O)c1nn(-c2ccccc2C)nc1CO,inactive: 2.7%,–
Cc1cccc(CNC(=O)CCCn2c(=O)c3cccn3c3ccc(F)cc32)c1,inactive: -5.8%,–
O=C(Cn1c(=O)n(-c2ccccc2Cl)c(=O)c2sc3ccccc3c21)NC1CCCCC1,inactive: -11.8%,–
Cc1ccc(CN2CCN(CC(=O)Nc3ccc(C)c(C)c3)S2(=O)=O)cc1,inactive: -13%,–
N#Cc1cccc(NC(=O)C2CCN(S(=O)(=O)c3ccc4[nH]c(=O)ccc4c3)CC2)c1,inactive: -4.62%,–
Cc1c(NC(=O)c2nc3ccccc3nc2N2CCCCC2)cccc1[N+](=O)[O-],inactive: -14.8%,–
Cc1ccccc1OC(=O)CSc1nnc(-c2ccc(F)cc2)o1,inactive: 0.24%,–

Structure (SMILES),"activity change, negative = inhibition",Potency
Cc1c(C)c2c(c(C)c1OC(=O)c1cccnc1)CC[C@@](C)(CCC[C@H](C)CCC[C@H](C)CCCC(C)C)O2,inactive: 3.42%,–
Cc1ccc(C(=O)Nc2ccc(-c3nc4ccccc4s3)cc2C)cc1C,inactive: 44.7%,–
COc1ccc(N2CC(NC(=O)CCCc3ccccc3)CC2=O)cc1 (centres undefined),inactive: 2.48%,–
COC(=O)c1ccccc1NC(=O)Nc1nnc(N2CCC(C)CC2)s1,inactive: 3.47%,–
CCOc1cc(CNC(=O)NC2COc3ccc(OC)cc3C2)cc(OCC)c1OCC (centres undefined),inactive: -15%,–
O=C(NCc1ccc2c(c1)OCO2)c1ccc2c(c1)N(Cc1cccc(Cl)c1)C(=O)c1ccccc1S2=O (centres undefined),inactive: -20%,–
CCN(CCCNC(=O)c1ccc(Sc2ccc(F)cc2)c(NC(C)=O)c1)c1ccccc1,inactive: -25.8%,–
Cc1ccc(CSC2=Nc3ccccc3C3=NC(CCC(=O)NCc4cccs4)C(=O)N23)cc1 (centres undefined),inactive: 25.4%,–
O=C(NCC(c1ccc2c(c1)OCO2)N1CCN(c2ccccc2)CC1)C(=O)Nc1cccc(F)c1 (centres undefined),inactive: -11.4%,–
CCN(CC)C(=O)CSc1nc2cc3c(cc2c(=O)n1CCCCCC(=O)NCc1ccc(OC)cc1)OCO3,inactive: -11.5%,–
Cc1ccc(-c2nc3c(C)cccn3c2Nc2ccccc2C)s1,inactive: -1.38%,–
Cc1ccc(F)cc1NC(=O)Cn1c(=O)nc(-c2ccccc2F)c2cc(Cl)ccc21,inactive: -8.86%,–
CC1CCCN(c2nc3c(S(=O)(=O)c4ccc(C(C)C)cc4)nnn3c3ccsc23)C1 (centres undefined),inactive: -3.02%,–
COc1ccccc1C(=O)NCc1nnnn1-c1ccc(C)c(C)c1,inactive: 6.33%,–
COc1ccc(-c2csc(-c3nc(-c4ccc(Br)s4)cs3)n2)cc1F,inactive: -16.8%,–
CCC1CCCCN1CCCNC(=O)c1c(O)nc2ccccn2c1=O (centres undefined),inactive: -4.46%,–
COc1cccc(CN2C(=O)c3ccccc3Sc3ccc(C(=O)NCCc4ccc(C)cc4)cc32)c1,inactive: -24.4%,–
COc1ccccc1C(=O)N1CCCCC1CCN1CCOCC1 (centres undefined),inactive: -7.16%,–
O=C(Nc1ccc(-c2nc3cc(NC(=O)c4ccccc4F)ccc3o2)cc1)c1ccccc1F,inactive: -8.15%,–
N#Cc1ccccc1NC(=O)CSc1ncn[nH]1,inactive: -2.42%,–
CCCCCCCC/C=C\CCCCCCCC(=O)NCc1ccc(O)c(OC)c1,inactive: -1.84%,–
CCCc1nn2c(=O)cc(COC(=O)c3cccs3)nc2s1,inactive: 38.9%,–
CCOc1ccc(C(=O)c2cn(CC(=O)Nc3ccc4c(c3)OCCO4)c3ccc(OC)cc3c2=O)cc1,inactive: -14.2%,–
O=C(NCc1ccccc1)c1cc2sccc2n1Cc1ccc(F)cc1,inactive: -16.9%,–

Structure (SMILES),"activity change, negative = inhibition",Potency
Cn1c(=O)c2c(nc(Oc3ccc(F)cc3)n2Cc2ccc(F)cc2)n(C)c1=O,inactive: -3.25%,–
COc1ccccc1NC(=O)c1sc2nc(C)c(C(=O)Nc3ccc(C)cc3C)c(-c3ccc(Br)cc3)c2c1N,inactive: -17.6%,–
CCOc1ccc(C(=O)CSc2nc3cc(C(=O)NC4CCCC4)ccc3c(=O)n2CC2CCCO2)cc1 (centres undefined),inactive: -4.29%,–
CC(=O)c1ccc(NC(=O)c2ccc3c(c2)nnn3C2CCCC2)cc1,inactive: -14.2%,–
Cc1ccc(C)c(NC(=O)c2nc(S(C)(=O)=O)ncc2N(Cc2ccc(C(C)(C)C)cc2)Cc2ccco2)c1,inactive: -30%,–
CN1C(=O)Cc2cc(S(=O)(=O)N3CCN(c4cccc(C(F)(F)F)c4)CC3)ccc21,inactive: -18.8% [at 11.5 µM],–
CCOc1ccc(CCn2c3c(c(=O)[nH]c2=O)C(NC(=O)c2ccccc2)(C(F)(F)F)C(=O)N3)cc1OCC (centres undefined),inactive: 2.41%,–
CCCCCn1c(=O)[nH]c2cc(C(=O)N3CCN(c4cc(Cl)ccc4C)CC3)ccc2c1=O,inactive: -11.8%,–
CCOC(=O)N1CCC(NC(=O)c2ccc3c(c2)N(Cc2cc(C)ccc2C)C(=O)c2ccccc2S3(=O)=O)CC1,inactive: -28.5%,–
CCOC(=O)c1c(S(=O)(=O)NCC(=O)Nc2cc(C)ccc2OC)c(C)n(C)c1C,inactive: -9.08%,–
Cc1ccccc1C(=O)OCc1cc(=O)n2nc(C3CC3)sc2n1,inactive: 25.6%,–
Cc1ccc(C(=O)OCc2cc(=O)n3nc(-c4cccs4)sc3n2)cc1,inactive: -2.97%,–
COc1ccc(NC(=O)CSc2nc3ccccc3nc2Cc2ccc(C)cc2)cc1Cl,inactive: -5.32%,–
O=C(Cn1cc(SCc2ccccc2F)c2ccccc21)N1CCCCCC1,inactive: 6.32%,–
CCN(CC)c1ccc2cc(-c3nc(-c4ccc(Cl)cc4Cl)cs3)c(=O)oc2c1,inactive: -7.96%,–
CCOC(=O)c1ccc(Nc2nc3nonc3nc2Nc2cccc(C)c2C)cc1,–,active: 2.24 µM
Cc1nc(-c2ccccc2)sc1-c1ccc(SCC(=O)NCc2ccccc2)nn1,inactive: 6.1%,–
O=c1ncn2nc(Sc3ccc(F)cc3F)ccc2c1-c1c(Cl)cccc1Cl,inactive: -21.8%,–
Cc1coc2cc3oc(=O)c(CC(=O)NCc4ccccc4)c(C)c3cc12,inactive: -5.83%,–
CC(=O)N1CCCc2cc(S(=O)(=O)N3CCCC(C(=O)Nc4ccc(C)c(C)c4)C3)ccc21 (centres undefined),inactive: -17.8%,–
COc1cccc(-c2cnc(NCc3ccccc3Cl)n2C)c1,inactive: 16.2%,–
Cc1ccc(C(=O)Nc2ccc3oc(-c4cccnc4)nc3c2)c(Cl)c1,inactive: -16.7%,–
C[C@]12C=CC(=O)C=C1CC[C@@H]1[C@@H]2[C@@H](O)C[C@@]2(C)[C@H]1CC[C@]2(O)C(=O)CO,inactive: 3.4%,–
CCOc1ccccc1NC(=O)c1cc(S(=O)(=O)NC2CCCC2)ccc1F,inactive: -29.1%,–

Structure (SMILES),"activity change, negative = inhibition",Potency
CCOc1ccc2nc(N3CCC(C(=O)Nc4c(C)cccc4C)CC3)sc2c1,inactive: 10.5%,–
Cc1ccc(S(=O)(=O)Nc2cc3c(cc2Cl)n(C)c(=O)c(=O)n3C)cc1,inactive: -6.4%,–
O=c1[nH]cc(F)c(=O)[nH]1,inactive,–
Cc1ccc(-n2ncc(C(=O)N3CCC(c4ccccc4)C3)c2C2CCN(C(=O)OC(C)(C)C)CC2)cc1 (centres undefined),inactive: -10.7%,–
CCCc1nn2c(C)c(-c3ccccc3)nc2s1,inactive: 76.5%,–
Cc1cc(C)c2oc(C(=O)Nc3ccc(S(=O)(=O)N(C)c4ccccc4)cc3)cc(=O)c2c1,inactive: 19.8%,–
O=c1c2c3c(sc2n(Cc2cc(=O)n4ccccc4n2)c(=O)n1-c1ccc(Cl)cc1)CCC3,inactive: 13%,–
COC(=O)CSc1nnc2n(-c3ccccc3)c(=O)c3c4c(sc3n12)COC(C(C)C)C4 (centres undefined),inactive: -10.7%,–
CS(=O)(=O)c1ccc([C@@H](O)[C@@H](CO)NC(=O)C(Cl)Cl)cc1,inactive,–
CCOc1ccccc1N1CC(c2nc3ccccc3n2CCOc2ccc(C(C)(C)C)cc2)CC1=O (centres undefined),inactive: -5.32%,–
Cc1ccccc1NC(=O)c1sc2nc(N3CCOCC3)c3c(c2c1N)CC(C)(C)OC3,inactive: 62%,–
CCOc1ccccc1N(C)C(=O)Cn1nc(Cc2cccnc2)c2ccccc2c1=O,inactive: -10.6%,–
COc1cc(NC(=O)N2CCN(c3cc(-c4noc(C)n4)ccc3C)CC2)cc(OC)c1OC,inactive: -13.8%,–
Cc1ccc(NC(=O)/C(C#N)=C\c2ccc(Cl)cc2Cl)cc1C,inactive: -22.2%,–
COc1ccc2c(c1)c1c(c(=O)n(CCc3ccccc3)c(=O)n1Cc1ccc(Cl)cc1)n2C,inactive: -14.4%,–
CCOc1ccccc1NC(=O)N1CCN(S(=O)(=O)c2ccc3c(ccn3C)c2)CC1,inactive: -11.6%,–
CC(C)c1ccccc1NC(=O)CSc1nnc(COc2ccccc2Cl)o1,inactive: -36%,–
Cc1ccc(-c2ccc(CCC(=O)O)n2-c2ccc(C(C)C)cc2)cc1,inactive: 13.7%,–
Nc1c(-c2nc(-c3ccccc3)no2)nnn1CC(=O)Nc1ccccc1,inactive: 14.4%,–
COc1ccccc1CNC(=O)Cn1ncc2c(C)n(Cc3ccccc3Cl)c(C)c2c1=O,inactive: -16.5%,–
CCc1ccc(NC(=O)CC2C(=O)N(c3ccc(C)cc3)C(=O)N2C2CCCC2)cc1 (centres undefined),inactive: 2.81%,–
CC(C)(C)c1ccc(Oc2nc3ccccn3c(=O)c2/C=C(\C#N)c2nc3ccccc3s2)cc1,inactive: -8.91%,–
